Assay results taken from PubChem BioAssay AID686978 (National Center for Advancing Translational Sciences (NCATS), 2013).
The campaign covered roughly 420,000 compounds. About 64,000 (15%) were called active. This list was built around the results that the source calls inconclusive (neither active nor inactive); the mix of calls is not that of the screen. Calls come from the whole dose curve; as a rule, active = well fitted inhibition curve with a large enough effect; inconclusive = small, poorly fitted or top-dose-only effect; inactive = flat fitted curve, though single readings scatter. No potency is given beside an inconclusive call; the fits are too rough.

Assay: qHTS for Inhibitors of human tyrosyl-DNA phosphodiesterase 1 (TDP1): qHTS in cells in absence of CPT; note: nearly all actives have a fitted effect of over 55% in size
Conditions: DT40 Tdp1-/- hTDP1 cells, no CPT, ATP luminescence, 48 h; activity change, negative = growth inhibition: at 46.2 µM (top of the series) unless noted
Method in brief: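 Growth kinetics read by CellTiter-Glo luminescence after ≥48 hr at 37 °C. Cells: DT40 Tdp1-/- stably carrying human TDP1, 400 per well, compound exposure in the absence of CPT (DMSO vehicle).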
% is set by controls: 0 for no effect and ±100 for the full control effect; potency is the fitted concentration of half-maximal effect; tags give direction and shape of the fitted curve.

Row | SMILES | activity change, negative = growth inhibition | Potency
1 | O=C(CSc1ncc2c(n1)-c1ccccc1N(Cc1ccc(Cl)cc1)S2(=O)=O)c1ccc(Cl)cc1 | inconclusive: -34.4% [inhibitor] | –
2 | COc1cc2nc(CN3CCN(C(C)=O)CC3)[nH]c(=O)c2cc1OC | inactive: -5.8% | –
3 | CCN(CC)CCn1c2c(c(SCC(=O)Nc3ccc(C(C)C)cc3)nc1=O)CCCC2 | – | inconclusive [inhibitor, single point]
4 | Cc1ccc(Nc2ccc(N3CCN(C(=O)c4cccc([N+](=O)[O-])c4)CC3)nn2)cc1 | – | active: 16.4 µM
5 | COc1cc(/C=C/C(=O)O)cc(S(=O)(=O)Nc2ccccc2C(=O)NCc2ccco2)c1OC | inactive: -2.92% | –
6 | Cn1c(=O)c2nc(NCc3ccccc3)cnc2n(C)c1=O | – | active: 13 µM
7 | O=C(COc1ccc(F)cc1)Nc1ccc(OCc2cc(=O)n3ccsc3n2)cc1 | inactive: -20.2% | –
8 | O=C(CNC(c1ccccc1)c1ccccc1)Nc1cc([N+](=O)[O-])ccc1Cl | – | active: 16.4 µM
9 | CCC(C)(C)n1nnnc1CN(Cc1ccc(Cl)cc1)Cc1ccco1 | – | inconclusive [inhibitor, single point]
10 | CC1CCCN(CCCNC(=O)c2nn(C)c3c2CS(=O)(=O)c2ccccc2-3)C1 (stereo unspecified) | inactive: -3.04% | –
11 | COc1ccccc1CN(C)C(=O)c1cccc(S(=O)(=O)N2CCCC2)c1 | inactive: -9.79% | –
12 | CC(C)C(=O)N1CCN(c2ccccc2NC(=O)c2ccc([N+](=O)[O-])o2)CC1 | – | inconclusive [inhibitor, single point]
13 | CCOc1ccc(NC(=O)CN(C)C(=O)c2c(C)nn(-c3ccc(F)cc3)c2Cl)cc1OCC | inactive: -7.91% | –
14 | COC(CNC(=O)c1ccc2c(=O)n(Cc3ccc4c(c3)OCO4)c(=S)[nH]c2c1)OC | inactive: -1.91% | –
15 | O=C(Nc1ccc([N+](=O)[O-])cc1Cl)c1cc(Br)ccc1O | – | active: 0.447 µM
16 | COc1ccc([C@H]2CC(=O)C=C(c3cc(C)ccc3F)C2)cc1 | – | inconclusive [inhibitor, single point]
17 | CN(C)c1ccc(-c2sc(Nc3ccccc3)n[n+]2-c2ccc(F)cc2)cc1 | – | inconclusive [inhibitor, single point]
18 | CC[C@@H]1[C@H]2CCCC(=O)N3CC[C@@H](C[C@@H]1OC(=O)Nc1ccccc1)[C@@H]23 | – | active: 11.2 µM
19 | O=[N+]([O-])c1ccc(-c2c(-c3ccccc3)ncc3ccc(F)cc23)cc1 | – | inconclusive [inhibitor, single point]
20 | CS(=O)(=O)N1CCC2(CCN(c3ccccc3)CC2)CC1 | – | inconclusive [inhibitor, single point]
21 | Cc1cccc(C)c1NC(=O)c1cccc2c1-c1ccccc1C2=O | – | inconclusive [inhibitor, full curve, poor fit]
22 | Cc1ccc(S(=O)(=O)N2CCN(C(=O)COC(=O)C3CC3C)CC2)c(C)c1 (stereo unspecified) | inactive: 0.023% | –
23 | CCC1CN(C(=O)N2CCC(C(=O)NCCCc3ccccc3)CC2)c2cc(C)ccc2O1 (stereo unspecified) | – | active: 13 µM

Row | SMILES | activity change, negative = growth inhibition | Potency
24 | COc1ccc(NS(=O)(=O)c2cc(-c3onc(C)c3C)ccc2C)c(OC)c1 | – | inconclusive [inhibitor, single point]
25 | CCn1c(SCC(=O)Nc2nc3ccc(OC)cc3s2)nc2c1c(=O)n(C)c(=O)n2C | – | inconclusive [inhibitor, single point]
26 | COC(=O)c1ccc(NC(=O)c2cc3sccc3n2C)cc1 | – | inconclusive [inhibitor, single point]
27 | O=C(CSc1nc(C2CCCCC2)nc2ccccc12)N1CCCC1 | – | inconclusive [inhibitor, single point]
28 | Cc1ccccc1NC(=O)Cn1c(=O)n(CCC(=O)N2CCc3ccccc3C2)c(=O)c2ccccc21 | – | active: 14.6 µM
29 | CCOC(=O)c1ccc(NC(=O)CCc2nc(-c3cccc(C)c3)no2)cc1 | – | active: 16.4 µM
30 | O=C(Cn1ncc2c1-c1ccccc1OC2)Nc1cccc(Cl)c1 | – | inconclusive [inhibitor, single point]
31 | O=[N+]([O-])c1ccccc1S(=O)(=O)N(CC1CO1)c1ccccc1 (stereo unspecified) | – | inconclusive [inhibitor, single point]
32 | COc1cccc(CC2(CO)CCCN(Cc3ccc(C)s3)C2)c1 (stereo unspecified) | – | inconclusive [inhibitor, single point]
33 | O=C(Oc1ccc(Cl)cc1)N1CCCCC1 | inactive: -14.5% | –
34 | Cc1ccc(C)c(C(=O)N2CCC(C3(c4ccccn4)NC(=O)N(CC4CCCO4)C3=O)CC2)c1 (stereo unspecified) | inactive: -8.05% | –
35 | Cc1cc(Cl)c2oc(C(=O)N3CCN(c4cnccn4)CC3)c(C)c2c1 | – | inconclusive [inhibitor, single point]
36 | O=c1[nH]c2ccc(NCc3ccc(F)cc3)cc2[nH]1 | – | inconclusive [inhibitor, single point]
37 | Cc1ccc(C2CC(=O)n3nc(-c4ccc(F)cc4)nc3S2)cc1 (stereo unspecified) | – | inconclusive [inhibitor, single point]
38 | CCOC(=O)c1c(NC(=O)c2ccn(CC)n2)sc2c1CCC2 | – | inconclusive [inhibitor, single point]
39 | Cc1cc(SCC#N)n2nc(C)c(-c3ccc(Cl)cc3)c2n1 | inactive: -15.6% | –
40 | CC1CCCCN1C(=S)NC(=O)c1ccco1 (stereo unspecified) | – | inconclusive [inhibitor, single point]
41 | CCCCCCCSc1ncnc2[nH]ncc12 | – | inconclusive [inhibitor, single point]
42 | O=C(COc1ccccc1C(=O)Nc1ccccc1)Nc1cccc(F)c1 | – | inconclusive [inhibitor, single point]
43 | CC1(O)c2ccccc2C(=O)N1CCc1ccccc1F (stereo unspecified) | – | inconclusive [inhibitor, single point]
44 | Cc1cc(Nc2ccccc2)nn1C(=O)c1ccccc1 | inconclusive: -30.2% [inhibitor] | –
45 | CNC(=O)/C(C#N)=C/c1ccc(-c2ccccc2[N+](=O)[O-])o1 | inactive: -20% | –
46 | COc1ccc(/C=C(/NC(=O)c2cccc([N+](=O)[O-])c2)C(=O)O)cc1 | inactive: 7.29% | –
